{
  "source": "patent US9993534B2",
  "about": "“Method of treating fungal infection” (Wisconsin Alumni Research Foundation, priority 2013, dated 2018)",
  "key": {"1807 cells": {"test_system": "1807 cells", "experiment": "In vivo activation and proliferation of adoptively transferred 1807 cells after vaccination", "text": "To assess the T helper cytokine phenotype of Calnexin-specific CD4^+ T cells after vaccination with Calnexin and various adjuvants, we transferred 10^6 naïve 1807 Tg cells into C57BL/6 wild-type mice before vaccination. On the same day, recipients were vaccinated, boosted two weeks later and challenged two weeks after the boost.\nTo investigate whether rCalnexin induces activation and proliferation of 1807 cells in vivo, we adoptively transferred 1807 Tg T cells into naïve wild-type recipient mice prior to vaccination."}, "1807 T cells": {"test_system": "1807 T cells", "experiment": "Stimulation of 1807 T cells in vitro (BMDC co-culture; IFN-γ ELISA, activation markers by flow cytometry)", "settings": "for activation of 1807 T cells: in vitro, BMDC co-culture three days, flow cytometry (reduced CD62L, increased CD44)", "text": "Eluate #1 was applied to a Gel-free 8100 fractionation system (Protein Discovery, Knoxville, Tenn.), and separated on a 10% Tris-Acetate cartridge. Fractions were collected that corresponded to separately eluted MW markers. These fractions were surveyed for protein content by PAGE analysis and silver stain.\nTo test the antigenic properties of the Calnexin protein and peptides we loaded bone marrow derived dendritic cells (BMDC) with the respective antigens and cultured them with naïve 1807 T cells to assess T-cell activation and cytokine production. After three days of co-culture, the cell culture supernatants were harvested and analyzed for cytokines by ELISA and 1807 T cells stained for the activation markers CD44 and CD62L (Wuthrich, Ersland, et al., 2012). In some experiments, the Blastomyces CW/M-reactive T-cell clone #5, whose TCR was cloned to generate 1807 transgenic mice (Wuthrich, Filutowicz, et al., 2007), was used as a reporter T-cell to identify the presence of the antigen. Cell-culture supernatants were generated in 96-well plates in 0.2 ml containing 1×10^5 BMDC, 0.05 to 10 μg/ml of CW/M antigen (Wuthrich, Filutowicz, et al., 2000), 0.05 to 50 μg/ml Calnexin and Drk1 (as a negative control) (Nemecek, Wuthrich, et al., 2006) and 0.001 to 100 μM Calnexin peptides #1-10 (FIG. 6). Supernatants were collected after 72 hours of co-culture. IFN-γ and IL-17A were measured by ELISA (R&D System, Minneapolis, Minn.) according to manufacturer specifications (detection limits were 0.05 ng/ml)."}},
  "data": [
    {"sequence": "LVVKNPAAHHAIS [Peptide 1]", "values": [
      {"measurement": "in vivo activation and proliferation of 1807 cells", "setting": "1807 cells", "value": "In vivo activation of 1807 T cells"},
      {"measurement": "IFN-γ production by 1807 T cells", "setting": "1807 T cells; co-culture with antigen-loaded BMDC, supernatant after 72 hours, ELISA", "value": "stimulated the production of IFN-γ by 1807 cells in a dose dependent manner"},
      {"measurement": "activation of 1807 T cells", "setting": "1807 T cells", "value": "strongly activated"},
      {"measurement": "activation of 1807 T cells", "setting": "1807 T cells; listed as Calnexin peptide 1", "value": "In vitro activation of 1807 T cells"}
    ]}
  ]
}
